Assay results published in publication PMC12040169 (PLOS Biology, 2025).
Some of the results follow.

test system: T1, C. trachomatis L2/434/Bu expressing GFP (CTL2-GFP); parameters: species or system HeLa; C. trachomatis total inclusion area by high-content imaging, normalised to DMSO; conditions: total inclusion area; 28.5 h, 10 µM; inhibitor
T1 construct: L2/434/Bu GFP intracellular growth in HeLa cells
Procedure, shortened: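 Host cell viability was gauged from Hoechst-stained nuclei counts, while chlamydial growth was taken from total inclusion area and inclusion number per well. Cells were fixed and imaged by high-content microscopy once bulk GFP and resorufin fluorescence had been measured.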

| SMILES | % of control remaining |
| --- | --- |
| O=C(O)C1C2CCC(O2)C1C(=O)Nc1cnn(Cc2ccccc2)c1 (centres unmarked) [CBK286849] | 110.625 |
| Cc1c(C(=O)N2CCN(C3CC3)CC2)nnn1Cc1ccc(F)cc1F [CBK305507] | 40.0143 |
| O=C(Nc1cc2cccnc2nc1Cl)c1ccc(C(F)(F)F)cc1[N+](=O)[O-] [CBK091348] | 87.888 |
| CC(C)(C)c1ccc(-c2cnc(N)c(-c3ccc(C(=O)N4CCOCC4)cc3)n2)cc1 [CBK084543A] | 60.4045 |
| CCNc1nc(Sc2ccc(Cl)cc2)cc(C(F)(F)F)n1 [CBK003349] | 75.3528 |
| COc1ccc(C2CCCC(N(CCN(C)C)C(=O)Nc3ccc(F)c(F)c3)C2)cc1OC (centres unmarked) [CBK059339C] | 58.9491 |
| COC(=O)c1ccc2c(=O)n(CC3CCCO3)c(SC)nc2c1 (centres unmarked) [CBK304535] | 82.3189 |
| O=C1N=C(NC2CCCCCC2)S[C@@H]1CC1CCCCC1 [CBK070723] | 72.5867 |
| O=C(O)C1CCCN1S(=O)(=O)c1ccc2[nH]c(=O)c(=O)[nH]c2c1 (centres unmarked) [CBK266971] | 111.302 |
| O=C(c1c(F)cccc1F)N1CCN(c2ncccn2)CC1 [CBK144517] | 77.2991 |
| Cn1c(/C=C/C=C/CN2CCN(Cc3ccccc3)CC2)nc2ccc([N+](=O)[O-])cc21 [CBK268281] | 95.5572 |
| CCCNc1nccnc1-c1cccc(Cl)c1Cl [CBK088892] | 138.495 |
| Cc1ccc2nc(N3CCCC(O)C3)c(CN3CCN(C)CC3)cc2c1 (centres unmarked) [CBK307710] | 73.6616 |
| COc1ccc(C(=O)Nc2cc(C)nn2-c2nc3ccccc3s2)cc1 [CBK287841] | 86.5549 |
| COc1ccc(-n2c(SCc3nc4ccccc4[nH]3)nc3sc4c(c3c2=O)CCCC4)cc1 [CBK267558] | 106.956 |
| Cc1ccc(C(=O)C(NC(=O)c2ccco2)Nc2cccc3ccccc23)cc1 (centres unmarked) [CBK263856] | 69.9663 |
| Cc1sc2nc(C)n(C3CCN(C(=O)C(C)C)CC3)c(=O)c2c1C [CBK282414] | 108.809 |
| COc1ccccc1-c1nn2c(Cn3nnc4ccccc43)nnc2s1 [CBK268373] | 106.862 |
| CC(=O)Nc1ccc(CC(C(=O)O)c2ccccc2)cc1 (centres unmarked) [CBK286600] | 68.788 |
| Cc1nc([N+](=O)[O-])c(N2CCN(C)CC2)n1Cc1ccccc1 [CBK261421] | 101.334 |
| O=C(C/C=N/OCc1ccccc1)c1sccc1Cl [CBK021611] | 69.0299 |
| Cc1nnc(NC(=O)c2ccc3c(c2)OCO3)s1 [CBK287358] | 94.4757 |
| Cc1ccc(-n2c(SCC(=O)c3ccc4c(c3)OCO4)nnc2-c2ccncc2)cc1 [CBK266132] | 161.662 |
| O=C(Nc1nc(-c2ccccc2)cs1)c1ccc(N2C(=O)CCC2=O)cc1 [CBK287333] | 116.049 |
| COc1ccc(Cl)cc1NC(=O)CN(c1cc(C(F)(F)F)ccc1Cl)S(C)(=O)=O [CBK264724] | 106.386 |

| SMILES | % of control remaining |
| --- | --- |
| O=c1[nH]c2cc(NCCO)c([N+](=O)[O-])cc2[nH]1 [CBK009794] | 71.7885 |
| CN(C)c1ccc(-c2cn3ccnc3c(NC3CC3)n2)cc1 [CBK037894] | 92.1206 |
| Cc1cc(C)[n+](-c2nccs2)c(C)c1 [CBK008782G] | 62.7488 |
| Cc1cccc(NC(=O)COc2ccccc2CNc2ccc(Br)cc2)c1 [CBK266534] | 103.846 |
| CN(C)CCN(C)C(=O)c1ccc(-c2cc3ccccc3o2)nc1NCc1cccnc1 [CBK076160] | 86.1895 |
| CCN1C(=O)/C(=C/c2cc(Br)ccc2OCc2cccc([N+](=O)[O-])c2)NC1=S [CBK265138] | 106.334 |
| CCCCCCC(C)n1c(-c2nonc2N)nc2ccccc21 (centres unmarked) [CBK062648] | 95.4112 |
| COc1ccc(-c2nnc([C@H]3CCN(Cc4cccc(C#N)c4)C3)o2)cc1 [CBK289400] | 87.8886 |
| CC(C#N)(NC(=O)COc1ncnc2sc3c(c12)CCC3)C1CC1 (centres unmarked) [CBK306333] | 33.0117 |
| Cc1cnc(CN2CCNC(=O)C2c2ccccc2C(F)(F)F)o1 (centres unmarked) [CBK306431] | 63.6867 |
| Cc1cc(C)cc(OCc2nnc(SCC(=O)N3CCN(c4ccccc4)CC3)o2)c1 [CBK268012] | 102.431 |
| Cc1cc(COc2nccnc2N2CCCC2)no1 [CBK115755] | 54.6685 |
| O=C(Oc1cccc(-c2cnc3ccccc3n2)c1)c1cccc(S(=O)(=O)N2CCOCC2)c1 [CBK262096] | 79.8371 |
| COc1ccccc1CC(=O)N1CCCC(c2cc3ncccc3[nH]2)C1 (centres unmarked) [CBK283417] | 100.972 |
| O/N=C/Nc1nccc(-c2cc(Cl)sc2Cl)n1 [CBK005934] | 44.7774 |
| COc1cc(OC)cc(C(=O)N2CCC3(CC2)CC(=O)c2cc(C)ccc2O3)c1 [CBK167804] | 89.1595 |
| Nc1ccc(-c2cn3ccnc3c(NCc3cccs3)n2)cc1 [CBK066564] | 139.792 |
| CC(NC(=O)c1c2c(nn1C)CCCC2)c1ccccn1 (centres unmarked) [CBK281888] | 88.558 |
| O=C(O)c1ccccc1NS(=O)(=O)c1cccc2cccnc12 [CBK042358] | 84.7036 |
| O=C1C(n2c(=O)[nH]c3ccccc3c2=O)CCN1CC(F)(F)F (centres unmarked) [CBK305264] | 30.0735 |
| COCCN(Cc1nnc(-c2cccs2)o1)C(C(=O)N1CCOCC1)c1ccccc1 (centres unmarked) [CBK295190] | 105.516 |
| Cc1ccc(N(CCc2cc(C(F)(F)F)cc(C(F)(F)F)c2)C(=O)CN)cc1NC(=O)CN(C)C [CBK003630T] | 56.2152 |
| Cc1ccc(OCC(=O)Nc2ccccc2N2CCN(S(C)(=O)=O)CC2)cc1 [CBK268722] | 78.7756 |
| Cc1cc(CC(=O)NCc2c(-c3ccccc3)noc2C)on1 [CBK144090] | 95.136 |
| Cc1ccc2nc(C)cc(C(=O)NNC(=O)Nc3ccc([N+](=O)[O-])cc3)c2c1 [CBK266890] | 113.545 |
